# Measurements: PubChem BioAssay (NCATS)
# This list was built around the results that the source calls inconclusive (neither active nor inactive); the mix of calls is not that of the screen. For part of these data: Where the call is inconclusive, the potency comes from a doubtful curve fit. Active and inactive are the calls of the source.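 How the source made its calls, unless noted: active means compounds whose dose series gives a full or clear partial fitted curve of increased nuclear translocation; inconclusive means weak partial curve or effect only at the top dose; inactive means no dose-dependent translocation response.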
# Key:
# [1] = target: Glucocorticoid receptor (Homo sapiens) (UniProt P04150); assay: GR-GFP Redistribution (AID 450); details: U2OS GR-GFP nuclear translocation, laser cytometry, 2 h; further: potency means the concentration at half of the fitted maximal effect
# Chain of UniProt P04150 (P04150 whole entry, looked up, the tested form may be a part): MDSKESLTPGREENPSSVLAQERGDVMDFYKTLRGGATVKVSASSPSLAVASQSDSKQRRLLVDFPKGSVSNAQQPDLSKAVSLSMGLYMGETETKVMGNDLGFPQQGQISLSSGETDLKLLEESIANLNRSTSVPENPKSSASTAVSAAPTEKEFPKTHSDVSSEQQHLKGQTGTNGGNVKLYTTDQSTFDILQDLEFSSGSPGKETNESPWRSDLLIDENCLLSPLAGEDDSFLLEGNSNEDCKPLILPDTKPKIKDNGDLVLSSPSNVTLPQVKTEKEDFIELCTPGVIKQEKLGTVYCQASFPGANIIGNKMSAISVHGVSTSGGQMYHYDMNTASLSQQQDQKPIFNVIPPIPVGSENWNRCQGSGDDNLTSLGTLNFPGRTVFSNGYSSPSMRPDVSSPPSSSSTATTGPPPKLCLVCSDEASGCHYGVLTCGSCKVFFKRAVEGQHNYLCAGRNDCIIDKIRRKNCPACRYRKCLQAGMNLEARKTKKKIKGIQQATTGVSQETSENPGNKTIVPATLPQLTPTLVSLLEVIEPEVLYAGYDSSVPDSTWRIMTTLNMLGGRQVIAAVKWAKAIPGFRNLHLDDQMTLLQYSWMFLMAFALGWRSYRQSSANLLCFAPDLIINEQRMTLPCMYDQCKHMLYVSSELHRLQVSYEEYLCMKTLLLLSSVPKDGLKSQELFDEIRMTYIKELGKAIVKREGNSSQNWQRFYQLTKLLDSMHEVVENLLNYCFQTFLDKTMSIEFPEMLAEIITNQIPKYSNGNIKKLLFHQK
# [2] = Stat Signaling Pathway (AID 446; active means well fitted curve in either direction with a large enough effect, not every such curve was filed as active; inconclusive means small, poorly fitted or top-dose-only effect, or another doubt;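 further: ME-180 cervical cancer cells given 40 pM IL-6 alongside compound; SIE-controlled beta-lactamase reporter measured as 460/530 nm FRET emission ratio; top concentration of the series differs between compounds; on the % scale 0 is the no-effect control and ±100 the full control effect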); details: ME-180 SIE beta-lactamase reporter, IL-6 stimulated, 5 h; at 7.69 µM (top of the series) unless noted
# In short: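 FRET read-out (405 nm excitation, 460/530 nm emission) of a beta-lactamase reporter under a STAT-inducible element in ME-180 cervical carcinoma cells. Cells with compound receive 40 pM IL-6 for 5 h. Values are normalised to AC90 stimulation and AC90 JAK-inhibitor controls.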
# [3] = qHTS Assay for Identification of Small Molecule Agonists for Hypoxia Response Element Signaling Pathway (AID 914; active means well fitted activation curve with a large enough effect in the signal ratio, with a control signal flat, not every such curve was filed as active; inconclusive means small, poorly fitted or top-dose-only effect, or effect the other way, or a change in a side signal; the % refers to the signal ratio; further: potency means the concentration at half of the fitted maximal effect; on activation: top concentration of the series differs between compounds; % of control where 0% means no effect); details: ME-180 (cervical carcinoma) HRE-bla reporter, beta-lactamase ratio, CoCl2, 17 h; activation: stronger effect = higher value
# In short: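 Positive modulation of EC50 CoCl2-induced hypoxia response element signaling is measured in ME-180 cells with a beta-lactamase reporter. Compounds are titrated, incubation runs 17 hours, and %Activity derives from the blue/green ratio.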
# [4] = target: Glucocorticoid receptor (Homo sapiens) (UniProt P04150); assay: GR-EFC Redistribution (AID 451; calls by dose curve; further: potency means the concentration at half of the fitted maximal effect); details: CHO-K1 GR-EFC translocation, beta-gal luminescence, 2 h
# In short: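 Translocation of GR-ED fusion to nuclear EA restores b-gal, read by luminescence after 1 h room-temperature detection. Engineered CHO-K1 biosensor cells, 1,000/well, exposed 2 h at 37 C to titrations up to 46 uM final.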
# [5] = target: Ubiquitin carboxyl-terminal hydrolase 1 (Homo sapiens) (UniProt O94782); assay: Inhibitors of USP1/UAF1: Pilot qHTS (AID 504865; active means well fitted inhibition curve with a large enough effect; inconclusive means small, poorly fitted or top-dose-only effect;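 further: rhodamine fluorescence freed from ubiquitin-rhodamine substrate followed over time; potency means the concentration at half of the fitted maximal effect; nearly all actives have a fitted effect of over 35% in size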); details: purified USP1/UAF1, Ub-rhodamine cleavage fluorescence; series mostly up to 54.9 µM
# Chain of UniProt O94782 (O94782 whole entry, looked up): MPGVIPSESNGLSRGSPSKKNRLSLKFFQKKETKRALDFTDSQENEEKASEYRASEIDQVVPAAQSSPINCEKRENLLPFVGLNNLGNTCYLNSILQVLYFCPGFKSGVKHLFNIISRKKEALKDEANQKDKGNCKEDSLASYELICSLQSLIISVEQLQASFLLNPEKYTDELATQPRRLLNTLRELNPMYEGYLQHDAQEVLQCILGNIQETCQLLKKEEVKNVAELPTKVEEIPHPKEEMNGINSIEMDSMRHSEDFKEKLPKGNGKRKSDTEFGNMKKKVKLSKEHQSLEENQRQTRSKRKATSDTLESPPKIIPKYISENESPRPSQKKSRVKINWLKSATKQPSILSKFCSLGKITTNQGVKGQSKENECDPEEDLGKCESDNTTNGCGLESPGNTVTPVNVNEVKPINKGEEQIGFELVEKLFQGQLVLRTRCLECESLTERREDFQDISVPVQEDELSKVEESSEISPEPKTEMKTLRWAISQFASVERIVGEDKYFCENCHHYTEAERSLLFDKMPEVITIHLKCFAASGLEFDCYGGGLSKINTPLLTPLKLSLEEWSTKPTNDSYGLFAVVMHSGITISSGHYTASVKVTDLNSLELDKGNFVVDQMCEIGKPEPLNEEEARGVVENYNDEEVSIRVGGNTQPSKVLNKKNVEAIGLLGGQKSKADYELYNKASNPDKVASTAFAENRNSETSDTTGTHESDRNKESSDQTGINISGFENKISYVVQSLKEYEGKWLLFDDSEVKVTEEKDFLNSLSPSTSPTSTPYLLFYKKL
# In short: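 Deubiquitinase activity followed as kinetic rhodamine fluorescence release from 150 nM Ub-Rho. 1 nM USP1/UAF1 with compound, after 15 min room-temperature preincubation, in HEPES pH 7.8 buffer containing TCEP, EDTA, BSA and Tween-20.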
# Tags describe the fitted curve by direction and shape or compound fluorescence and quenching.
smiles,measurement,setting,value
Nc1c(S(=O)(=O)O)cc(S(=O)(=O)O)c2ccc(N=Nc3ccccc3)c(O)c12,Potency,[1],active: 2.59 µM
COC(=O)c1ccc(Cn2c(O)c(N=O)c3ccccc32)o1,Potency,[1],inactive: > 20.6 µM
C[C@H](CCC(=O)O)[C@H]1CC[C@]2(C)[C@@H]3C(=O)C[C@H]4C(C)(C)[C@@H](O)CC[C@]4(C)[C@H]3C(=O)C[C@@]12C,Potency,[1],inactive: > 46 µM
CCCn1cnc2c(SCC(=O)O)nc(N)nc21,Potency,[1],inactive: > 46 µM
N[C@@H]1[C@@H]2[C@@H]3C[C@H]4N(CC[C@@]14C(=O)C(=O)O)CC3=CCO[C@@H]2CC(=O)O,Potency,[1],inactive: > 46 µM
CC(=O)Nc1cnc2ccccc2n1,"activity, negative = inhibition",[2],inactive: 7.01% [at 17.2 µM]
same,activation,[3],inconclusive: -38.6%
Clc1ccccc1-c1nnc2sc(-c3ccco3)nn12,Potency,[1],inconclusive: 29.8 µM [single point]
Cn1nnnc1-c1cc(Br)ccc1NC(=O)c1ccccc1,"activity, negative = inhibition",[2],inactive: 24.3% [at 17.2 µM]
same,Potency,[3],"inconclusive: 12.6 µM [inhibitor, single point]"
CCC(=O)O[C@@]1(C(=O)CCl)[C@@H](C)C[C@@H]2[C@H]3CCC4=CC(=O)C=C[C@@]4(C)[C@]3(F)[C@@H](O)C[C@@]21C,Potency,[1],active: 0.000621 µM
same,Potency,[4],active: < 5.9 pM
same,Potency,[5],"inconclusive: 31.6 µM [inhibitor, partial curve]"
COc1cccc(C2CC(c3ccccc3Cl)n3nc(N)nc3N2)c1 (stereo not given),Potency,[1],inactive: > 20.6 µM
CCOC(=O)CC1=C(C(=O)OCC)C(c2ccc(OC)c(OC)c2)C(C#N)=C(N)O1 (stereo not given),Potency,[1],inconclusive: 18.3 µM [single point]
